Results taken from the RNAGym collection of RNA variant scans (doi:10.7554/elife.90254).
The source gives no read counts; variants with many changes may rest on few reads.

B1: OR4K15 (parent)
chain: GUUAACGGUCAUAGGCCAUGGAAACUAGGAGCACCAUUUCGCUGCCAGUGAAGAAAUGAACAAAGAAAAUCUGGGCCAGGCAGGCAUCAAAAGAAAUAGUCUUGCGCUCAACCAGAAAGUCUGUAAUCAUUUUAAGGGUA

Variants of: B1
Test: self-cleavage, relative activity (ratio to wild type); higher = more cleavage; in vitro, sequencing; the parent is a self-cleaving ribozyme

**Q.** For U57C A86G A116G A126G, which self-cleavage is on record?
**A.** Its self-cleavage is 0.5.

**Q.** Which self-cleavage does the source give for U2A A94G U103C here?
**A.** Its self-cleavage is 0.79.

**Q.** With A33U A54G A67G A92G A110G as the variant, how does the self-cleavage read?
**A.** Its self-cleavage is 0.17.

**Q.** Which self-cleavage does the source give for U12C U19C A24G A116G here?
**A.** The self-cleavage was 0.72.

**Q.** For A62G A66G A68G U87C A95G A126G, which self-cleavage is on record?
**A.** Its self-cleavage is 0.83.

**Q.** Which self-cleavage does the source give for A92G U122C U124G U132C here?
**A.** Its self-cleavage is 0.17.

**Q.** Which self-cleavage does the source give for A4G A92G A126G here?
**A.** Its self-cleavage is 1.08.

**Q.** Which self-cleavage does the source give for U12C A18U G80A A117G here?
**A.** Its self-cleavage is 0.16.

**Q.** For U39A U57C A67G A114G, which self-cleavage is on record?
**A.** Its self-cleavage is 0.41.

**Q.** With A68G A90G U122C as the variant, how does the self-cleavage read?
**A.** The self-cleavage was 0.1.

**Q.** With U37C A68G A92U A96G U102C U108A U130C as the variant, how does the self-cleavage read?
**A.** Its self-cleavage is 0.01.

**Q.** Which self-cleavage does the source give for U9A A23G A52G U124C here?
**A.** The self-cleavage was 0.27.

**Q.** With A82G A90G U122A as the variant, how does the self-cleavage read?
**A.** Its self-cleavage is 0.67.

**Q.** For A11G U37C G50A A68G A126U, which self-cleavage is on record?
**A.** Its self-cleavage is 0.43.

**Q.** Which self-cleavage does the source give for A13U A110G U132C here?
**A.** Its self-cleavage is 0.03.

**Q.** For A5C A96G U108A, which self-cleavage is on record?
**A.** The self-cleavage was 0.02.

**Q.** Which self-cleavage does the source give for A33G U38C A63G here?
**A.** The self-cleavage was 0.79.

**Q.** For A13U A89G A110G A118G, which self-cleavage is on record?
**A.** The self-cleavage was 0.22.

**Q.** Which self-cleavage does the source give for A30G C105U G106A U108C here?
**A.** The self-cleavage was 0.02.

**Q.** For U2C U9C A52G A111G, which self-cleavage is on record?
**A.** Its self-cleavage is 0.05.

**Q.** For A11U A23G A56G, which self-cleavage is on record?
**A.** Its self-cleavage is 0.87.

**Q.** For U26C U39C U49A U122C, which self-cleavage is on record?
**A.** The self-cleavage was 0.61.

**Q.** With U2G A5G A18G A51U U70C G83U U108C A118G as the variant, how does the self-cleavage read?
**A.** Its self-cleavage is 0.03.

**Q.** Which self-cleavage does the source give for A33G G123U A140G here?
**A.** Its self-cleavage is 0.75.

**Q.** Which self-cleavage does the source give for U9A U43C U130C here?
**A.** The self-cleavage was 0.74.

**Q.** Which self-cleavage does the source give for U9C A33G A69C U131C here?
**A.** The self-cleavage was 0.87.

**Q.** For A23G A33G A66G C105U A118G, which self-cleavage is on record?
**A.** The self-cleavage was 0.09.

**Q.** With A23G A62G A63G A118G A135U as the variant, how does the self-cleavage read?
**A.** The self-cleavage was 1.69.

**Q.** For A5U A13U A47G A118G G137A, which self-cleavage is on record?
**A.** The self-cleavage was 1.78.

**Q.** For A47G A68G A117G U132C, which self-cleavage is on record?
**A.** The self-cleavage was 1.4.

**Q.** With A86G A96G U108A as the variant, how does the self-cleavage read?
**A.** Its self-cleavage is 0.02.

**Q.** For U19C U57C A66G A82G, which self-cleavage is on record?
**A.** Its self-cleavage is 0.36.

**Q.** For U43C A60G A94G, which self-cleavage is on record?
**A.** The self-cleavage was 1.48.

**Q.** With U19C A55G U139C as the variant, how does the self-cleavage read?
**A.** The self-cleavage was 1.41.

**Q.** For A11C A18U A60G U97A U108C, which self-cleavage is on record?
**A.** Its self-cleavage is 0.

**Q.** Which self-cleavage does the source give for U39A A95G C112U here?
**A.** Its self-cleavage is 0.03.

**Q.** With A82G U102C A114U A126G as the variant, how does the self-cleavage read?
**A.** Its self-cleavage is 0.03.

**Q.** Which self-cleavage does the source give for A52G U102G U103C A111G here?
**A.** Its self-cleavage is 0.03.

**Q.** With G8C A55G A140G as the variant, how does the self-cleavage read?
**A.** Its self-cleavage is 1.53.

**Q.** Which self-cleavage does the source give for U26C G48A U49A here?
**A.** Its self-cleavage is 1.53.

**Q.** Which self-cleavage does the source give for A4G U39C A47G here?
**A.** The self-cleavage was 1.17.

**Q.** With A56G A68G U70A U130A as the variant, how does the self-cleavage read?
**A.** Its self-cleavage is 0.63.

**Q.** Which self-cleavage does the source give for U38C A51G A125G here?
**A.** The self-cleavage was 0.52.

**Q.** For G28A A82G A110C A111G, which self-cleavage is on record?
**A.** Its self-cleavage is 0.01.

**Q.** Which self-cleavage does the source give for A60G A64G G106U here?
**A.** The self-cleavage was 0.02.

**Q.** With A86G A91U U97A as the variant, how does the self-cleavage read?
**A.** Its self-cleavage is 1.75.

**Q.** Which self-cleavage does the source give for A27G A30U A51G U108C here?
**A.** The self-cleavage was 0.04.

**Q.** With U2C G7U A24G A55G A86G A92U U127C as the variant, how does the self-cleavage read?
**A.** Its self-cleavage is 0.66.

**Q.** Which self-cleavage does the source give for U9C U57G A116G here?
**A.** The self-cleavage was 0.32.

**Q.** Which self-cleavage does the source give for C6U U57C A86U A94G A117G here?
**A.** Its self-cleavage is 0.53.

**Q.** Which self-cleavage does the source give for A30G G41C U102C C105G A114U here?
**A.** Its self-cleavage is 0.01.

**Q.** Which self-cleavage does the source give for A23G A68G A78G here?
**A.** The self-cleavage was 0.27.

**Q.** For A36G U39C A125G, which self-cleavage is on record?
**A.** The self-cleavage was 0.95.

**Q.** Which self-cleavage does the source give for U38C U103C A118G U127C here?
**A.** Its self-cleavage is 0.12.

**Q.** Which self-cleavage does the source give for A13G A55G A64G here?
**A.** The self-cleavage was 1.65.

**Q.** With A47G A62G A68G A78C A86G A117G as the variant, how does the self-cleavage read?
**A.** Its self-cleavage is 0.06.

**Q.** Which self-cleavage does the source give for U37C A51G A94G A110G U130C here?
**A.** The self-cleavage was 0.03.

**Q.** For U43A A51U U131C U132C, which self-cleavage is on record?
**A.** The self-cleavage was 1.13.

**Q.** With A27G A30G A90G A118U as the variant, how does the self-cleavage read?
**A.** The self-cleavage was 0.7.

**Q.** With A90G A94G A98G as the variant, how does the self-cleavage read?
**A.** Its self-cleavage is 0.54.

**Q.** With A5C U49C A98U as the variant, how does the self-cleavage read?
**A.** The self-cleavage was 1.45.

**Q.** With G7A A47U A52G G58U G83U A94G as the variant, how does the self-cleavage read?
**A.** Its self-cleavage is 0.31.

**Q.** Which self-cleavage does the source give for A52G A68G A86G U108C here?
**A.** The self-cleavage was 0.03.

**Q.** With A18C A66G A68U A82G as the variant, how does the self-cleavage read?
**A.** The self-cleavage was 0.73.

**Q.** Which self-cleavage does the source give for A24G U103C A129U here?
**A.** Its self-cleavage is 0.77.

**Q.** With A18U U37C U72C as the variant, how does the self-cleavage read?
**A.** Its self-cleavage is 0.25.

**Q.** With A47G U108C U122C as the variant, how does the self-cleavage read?
**A.** The self-cleavage was 0.01.

**Q.** With A11G G74A A118U U131C as the variant, how does the self-cleavage read?
**A.** The self-cleavage was 0.08.

**Q.** With U37A U49C G84A A111G A135G as the variant, how does the self-cleavage read?
**A.** Its self-cleavage is 0.

**Q.** For A18G G20U U87A A91C, which self-cleavage is on record?
**A.** The self-cleavage was 2.39.

**Q.** Which self-cleavage does the source give for A18G A54G U108A here?
**A.** The self-cleavage was 0.03.

**Q.** For A114G U124G U132C, which self-cleavage is on record?
**A.** Its self-cleavage is 0.08.

**Q.** Which self-cleavage does the source give for A62G A66G A92G here?
**A.** The self-cleavage was 1.35.

**Q.** Which self-cleavage does the source give for C45U A63G U87C here?
**A.** Its self-cleavage is 1.71.

**Q.** Which self-cleavage does the source give for A5C A55G A62G A67G U102A A117C here?
**A.** The self-cleavage was 0.15.

**Q.** Which self-cleavage does the source give for U39C G41U U57A U100C A126G here?
**A.** The self-cleavage was 2.48.

**Q.** With A5G A64G A98G U108C U139C as the variant, how does the self-cleavage read?
**A.** The self-cleavage was 0.11.

**Q.** Which self-cleavage does the source give for C105U A117G U122C here?
**A.** The self-cleavage was 0.01.

**Q.** For A22G A63G U120C, which self-cleavage is on record?
**A.** Its self-cleavage is 1.38.

**Q.** Which self-cleavage does the source give for U87C A92G U127A here?
**A.** The self-cleavage was 2.48.

**Q.** For A52G A89G U139C, which self-cleavage is on record?
**A.** Its self-cleavage is 1.32.

**Q.** Which self-cleavage does the source give for U2C A33G U102C here?
**A.** Its self-cleavage is 0.91.

**Q.** For U38C A86G A96G, which self-cleavage is on record?
**A.** Its self-cleavage is 0.63.

**Q.** With A60U U72A A96G A111G as the variant, how does the self-cleavage read?
**A.** The self-cleavage was 0.04.
